# Measurements reported in the supplement of paper PMC8728848.
# Some of the results follow.
# B1: ZG-16 (Homo sapiens), O60844 (protein)
# chain: IQARSSSYSGEYGSGGGKRFSHSGNQLDGPITALRVRVNTYYIVGLQVRYGKVWSDYVGGRNGDLEEIFLHPGESVIQVSGKYKWYLKKLVFVTDKGRYLSFGKDSGTSFNAVPLHPNTVLRFISGRSGSLIDAIGLHWDVYPTSCSRCSRGSDDDDKAEPRGPTIKPCPPCKCPAPNLLGGPSVFIFPPKIKDVLMISLSPIVTCVVVDVSEDDPDVQISWFVNNVEVHTAQTQTHREDYNSTLRVVSALPIQHQDWMSGKEFKCKVNNKDLPAPIERTISKPKGSVRAPQVYVLPPPEEEMTKKQVTLTCMVTDFMPEDIYVEWTNNGKTELNYKNTEPVLDSDGSYFMYSKLRVEKKNWVERNSYSCSVVHEGLHNHHTTKSFSRTPGKRTYHHHHHHARKLTR
# Assays:
# Assay in all cases: glycan array binding signal (z-score within array); higher = stronger binding
# Conditions in all cases: glycan notation: IUPAC condensed, linker removed
# Fuc(a1-2)[Gal(a1-3)]Gal = target: Fuc(a1-2)[Gal(a1-3)]Gal
# How it was run: (§1)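 The Consortium for Functional Glycomics database supplied 3228 glycan arrays, of which those lacking an available protein sequence were dropped. The binding signal, a within-array Z-score, was averaged across arrays of the same protein sequence and across linkers. Negative scores can be read as non-binding.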
# [1] = target: Fuc(a1-2)[Gal(a1-3)]Gal(b1-3)GlcNAc
# How it was run: as §1
# [2] = target: Fuc(a1-2)[Gal(a1-3)]Gal(b1-3)GlcNAc(b1-2)Man(a1-3)[Fuc(a1-2)[Gal(a1-3)]Gal(b1-3)GlcNAc(b1-2)Man(a1-6)]Man(b1-4)GlcNAc(b1-4)GlcNAc
# How it was run: as §1
# [3] = target: Fuc(a1-2)[Gal(a1-3)]Gal(b1-4)Glc
# How it was run: as §1
# [4] = target: Fuc(a1-2)[Gal(a1-3)]Gal(b1-4)GlcNAc
# How it was run: as §1
# [5] = target: Fuc(a1-2)[Gal(a1-3)]Gal(b1-4)GlcNAc(b1-2)Man(a1-3)[Fuc(a1-2)[Gal(a1-3)]Gal(b1-4)GlcNAc(b1-2)Man(a1-6)]Man(b1-4)GlcNAc(b1-4)GlcNAc
# How it was run: as §1
# [6] = target: Fuc(a1-2)[Gal(a1-3)]Gal(b1-4)[Fuc(a1-3)]GlcNAc
# How it was run: as §1
# [7] = target: Fuc(a1-2)[Gal(a1-4)]Gal(b1-4)GlcNAc
# How it was run: as §1
# [8] = target: Fuc(a1-2)[GalNAc(a1-3)]Gal
# How it was run: as §1
# [9] = target: Fuc(a1-2)[GalNAc(a1-3)]Gal(b1-3)GalNAc(a1-3)[Fuc(a1-2)]Gal(b1-4)GlcNAc
# How it was run: as §1
# [10] = target: Fuc(a1-2)[GalNAc(a1-3)]Gal(b1-3)GlcNAc
# How it was run: as §1
# [11] = target: Fuc(a1-2)[GalNAc(a1-3)]Gal(b1-3)GlcNAc(b1-2)Man(a1-3)[Fuc(a1-2)[GalNAc(a1-3)]Gal(b1-3)GlcNAc(b1-2)Man(a1-6)]Man(b1-4)GlcNAc(b1-4)GlcNAc
# How it was run: as §1
# [12] = target: Fuc(a1-2)[GalNAc(a1-3)]Gal(b1-4)Glc
# How it was run: as §1
# [13] = target: Fuc(a1-2)[GalNAc(a1-3)]Gal(b1-4)GlcNAc
# How it was run: as §1
# [14] = target: Fuc(a1-2)[GalNAc(a1-3)]Gal(b1-4)GlcNAc(b1-2)Man(a1-3)[Fuc(a1-2)[GalNAc(a1-3)]Gal(b1-4)GlcNAc(b1-2)Man(a1-6)]Man(b1-4)GlcNAc(b1-4)GlcNAc
# How it was run: as §1
# [15] = target: Fuc(a1-2)[GalNAc(a1-3)]Gal(b1-4)GlcNAc(b1-3)Gal(b1-4)GlcNAc
# How it was run: as §1
# [16] = target: Fuc(a1-2)[GalNAc(a1-3)]Gal(b1-4)GlcNAc(b1-3)Gal(b1-4)GlcNAc(b1-3)Gal(b1-4)GlcNAc
# How it was run: as §1
# [17] = target: Fuc(a1-2)[GalNAc(a1-3)]Gal(b1-4)[Fuc(a1-3)]GlcNAc
# How it was run: as §1
# [18] = target: Fuc(a1-2)[GalNAc(a1-4)]Gal(b1-4)GlcNAc
# How it was run: as §1
# [19] = target: Fuc(a1-2)[GalNAc(b1-3)]Gal
# How it was run: as §1
# Fuc(a1-3)GlcNAc = target: Fuc(a1-3)GlcNAc
# How it was run: as §1
# [20] = target: Fuc(a1-3)[Gal(b1-4)]Glc6S
# How it was run: as §1
# [21] = target: Fuc(a1-3)[Gal(b1-4)]GlcNAc
# How it was run: as §1
# [22] = target: Fuc(a1-3)[Gal(b1-4)]GlcNAc(b1-2)Man(a1-3)[Fuc(a1-3)[Gal(b1-4)]GlcNAc(b1-2)Man(a1-6)]Man(b1-4)GlcNAc(b1-4)GlcNAc
# How it was run: as §1
# [23] = target: Fuc(a1-3)[Gal(b1-4)]GlcNAc(b1-3)Gal(b1-3)[Fuc(a1-4)]GlcNAc
# How it was run: as §1
# [24] = target: Fuc(a1-3)[Gal(b1-4)]GlcNAc(b1-3)GalNAc
# How it was run: as §1
# [25] = target: Fuc(a1-3)[Gal(b1-4)]GlcNAc(b1-4)Gal(b1-4)[Fuc(a1-3)]GlcNAc
# How it was run: as §1
# [26] = target: Fuc(a1-3)[Gal(b1-4)]GlcNAc(b1-4)Gal(b1-4)[Fuc(a1-3)]GlcNAc(b1-4)Gal(b1-4)[Fuc(a1-3)]GlcNAc
# How it was run: as §1
# [27] = target: Fuc(a1-3)[Gal(b1-4)]GlcNAc(b1-6)[Gal(b1-3)GlcNAc(b1-3)]Gal(b1-4)Glc
# How it was run: as §1
# [28] = target: Fuc(a1-3)[Gal(b1-4)]GlcNAc6S
# How it was run: as §1
binder,measurement,setting,value
B1,glycan array binding signal (z-score),Fuc(a1-2)[Gal(a1-3)]Gal,-0.217
same,glycan array binding signal (z-score),[1],-0.142
same,glycan array binding signal (z-score),[2],-0.177
same,glycan array binding signal (z-score),[3],-0.2
same,glycan array binding signal (z-score),[4],-0.085
same,glycan array binding signal (z-score),[5],-0.178
same,glycan array binding signal (z-score),[6],-0.205
same,glycan array binding signal (z-score),[7],-0.159
same,glycan array binding signal (z-score),[8],-0.202
same,glycan array binding signal (z-score),[9],-0.203
same,glycan array binding signal (z-score),[10],-0.033
same,glycan array binding signal (z-score),[11],-0.213
same,glycan array binding signal (z-score),[12],-0.169
same,glycan array binding signal (z-score),[13],-0.199
same,glycan array binding signal (z-score),[14],-0.214
same,glycan array binding signal (z-score),[15],-0.219
same,glycan array binding signal (z-score),[16],-0.168
same,glycan array binding signal (z-score),[17],-0.203
same,glycan array binding signal (z-score),[18],-0.201
same,glycan array binding signal (z-score),[19],-0.191
same,glycan array binding signal (z-score),Fuc(a1-3)GlcNAc,-0.179
same,glycan array binding signal (z-score),[20],-0.188
same,glycan array binding signal (z-score),[21],-0.184
same,glycan array binding signal (z-score),[22],0.273
same,glycan array binding signal (z-score),[23],-0.197
same,glycan array binding signal (z-score),[24],-0.168
same,glycan array binding signal (z-score),[25],-0.177
same,glycan array binding signal (z-score),[26],-0.161
same,glycan array binding signal (z-score),[27],-0.196
same,glycan array binding signal (z-score),[28],-0.174
